# Experimental data taken from the supplement of paper PMC8728848.
# The list shows a part of the results.
# B1: SSP1 (Sclerotinia sclerotiorum), XP_001584968 (protein)
# chain: MGSSHHHHHHSSGLVPRGSHMSLLTTELACTSAPDQVLHLFFQDGQNILEARSPDGGNVWTTQDTIIAKDGDYNGSSMTCYYVDKDANFDNQPSIHLLYMNKDKQLTEKVKRMKGDNPIWEDAKVPDEVRKGPEQYSKLTSGSFNQGTGWNPNGSQWAYFSASKDGKMGIVEIRRTPKDPWHTETILEEKWGDELPGTALACVIGNGKIRVFLQHHDYSIILYENQNNTWHDRGTFIPKDKVQATTPLACTMTKDGSVHLFYVSKSNKIIHCTDGKKEEELINFFPGSKLGATSVENKITLFFRNLNPVNEVGTLENENGSWKHGTTVIPA
# Tests used:
# Experiment in all cases: glycan array binding signal (z-score within array); higher = stronger binding
# Conditions in all cases: glycan notation: IUPAC condensed, linker removed
# [1] = biological target: Gal(b1-4)GlcNAc(b1-3)Gal(b1-3)GlcNAc
# Summary of the method: (§1)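 The binding signal is a Z-score computed within each array and averaged over linkers. Arrays of the same protein sequence at different concentrations or buffers were also averaged together. Data originate from 3228 arrays in the Consortium for Functional Glycomics database, kept only where the protein sequence was available.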
# [2] = biological target: Gal(b1-4)GlcNAc(b1-3)Gal(b1-4)Glc
# Summary of the method: as §1
# [3] = biological target: Gal(b1-4)GlcNAc(b1-3)Gal(b1-4)GlcNAc
# Summary of the method: as §1
# [4] = biological target: Gal(b1-4)GlcNAc(b1-3)Gal(b1-4)GlcNAc(b1-2)Man(a1-3)[Gal(b1-4)GlcNAc(b1-3)Gal(b1-4)GlcNAc(b1-2)Man(a1-6)]Man(b1-4)GlcNAc(b1-4)GlcNAc
# Summary of the method: as §1
# [5] = biological target: Gal(b1-4)GlcNAc(b1-3)Gal(b1-4)GlcNAc(b1-2)Man(a1-3)[Gal(b1-4)GlcNAc(b1-3)Gal(b1-4)GlcNAc(b1-2)Man(a1-6)]Man(b1-4)GlcNAc(b1-4)[Fuc(a1-6)]GlcNAc
# Summary of the method: as §1
# [6] = biological target: Gal(b1-4)GlcNAc(b1-3)Gal(b1-4)GlcNAc(b1-2)[Gal(b1-4)GlcNAc(b1-3)Gal(b1-4)GlcNAc(b1-6)]Man(a1-6)[Gal(b1-4)GlcNAc(b1-3)Gal(b1-4)GlcNAc(b1-2)Man(a1-3)]Man(b1-4)GlcNAc(b1-4)GlcNAc
# Summary of the method: as §1
# [7] = biological target: Gal(b1-4)GlcNAc(b1-3)Gal(b1-4)GlcNAc(b1-2)[Gal(b1-4)GlcNAc(b1-3)Gal(b1-4)GlcNAc(b1-6)]Man(a1-6)[Gal(b1-4)GlcNAc(b1-3)Gal(b1-4)GlcNAc(b1-2)Man(a1-3)]Man(b1-4)GlcNAc(b1-4)[Fuc(a1-6)]GlcNAc
# Summary of the method: as §1
# [8] = biological target: Gal(b1-4)GlcNAc(b1-3)Gal(b1-4)GlcNAc(b1-3)Gal(b1-4)GlcNAc
# Summary of the method: as §1
# [9] = biological target: Gal(b1-4)GlcNAc(b1-3)Gal(b1-4)GlcNAc(b1-3)Gal(b1-4)GlcNAc(b1-2)Man(a1-3)[Gal(b1-4)GlcNAc(b1-3)Gal(b1-4)GlcNAc(b1-3)Gal(b1-4)GlcNAc(b1-2)Man(a1-6)]Man(b1-4)GlcNAc(b1-4)GlcNAc
# Summary of the method: as §1
# [10] = biological target: Gal(b1-4)GlcNAc(b1-3)Gal(b1-4)GlcNAc(b1-3)Gal(b1-4)GlcNAc(b1-2)Man(a1-3)[Gal(b1-4)GlcNAc(b1-3)Gal(b1-4)GlcNAc(b1-3)Gal(b1-4)GlcNAc(b1-2)Man(a1-6)]Man(b1-4)GlcNAc(b1-4)[Fuc(a1-6)]GlcNAc
# Summary of the method: as §1
# [11] = biological target: Gal(b1-4)GlcNAc(b1-3)Gal(b1-4)GlcNAc(b1-3)Gal(b1-4)GlcNAc(b1-2)[Gal(b1-4)GlcNAc(b1-3)Gal(b1-4)GlcNAc(b1-3)Gal(b1-4)GlcNAc(b1-6)]Man(a1-6)[Gal(b1-4)GlcNAc(b1-3)Gal(b1-4)GlcNAc(b1-3)Gal(b1-4)GlcNAc(b1-2)Man(a1-3)]Man(b1-4)GlcNAc(b1-4)[Fuc(a1-6)]GlcNAc
# Summary of the method: as §1
# [12] = biological target: Gal(b1-4)GlcNAc(b1-3)Gal(b1-4)GlcNAc(b1-3)Gal(b1-4)GlcNAc(b1-3)Gal(b1-4)GlcNAc(b1-2)Man(a1-3)[Gal(b1-4)GlcNAc(b1-3)Gal(b1-4)GlcNAc(b1-3)Gal(b1-4)GlcNAc(b1-3)Gal(b1-4)GlcNAc(b1-2)Man(a1-6)]Man(b1-4)GlcNAc(b1-4)GlcNAc
# Summary of the method: as §1
# [13] = biological target: Gal(b1-4)GlcNAc(b1-3)Gal(b1-4)GlcNAc(b1-3)Gal(b1-4)GlcNAc(b1-3)Gal(b1-4)GlcNAc(b1-2)Man(a1-3)[Gal(b1-4)GlcNAc(b1-3)Gal(b1-4)GlcNAc(b1-3)Gal(b1-4)GlcNAc(b1-3)Gal(b1-4)GlcNAc(b1-2)Man(a1-6)]Man(b1-4)GlcNAc(b1-4)[Fuc(a1-6)]GlcNAc
# Summary of the method: as §1
# [14] = biological target: Gal(b1-4)GlcNAc(b1-3)Gal(b1-4)GlcNAc(b1-3)Gal(b1-4)GlcNAc(b1-3)Gal(b1-4)GlcNAc(b1-2)[Gal(b1-4)GlcNAc(b1-3)Gal(b1-4)GlcNAc(b1-3)Gal(b1-4)GlcNAc(b1-3)Gal(b1-4)GlcNAc(b1-6)]Man(a1-6)[Gal(b1-4)GlcNAc(b1-3)Gal(b1-4)GlcNAc(b1-3)Gal(b1-4)GlcNAc(b1-3)Gal(b1-4)GlcNAc(b1-2)Man(a1-3)]Man(b1-4)GlcNAc(b1-4)[Fuc(a1-6)]GlcNAc
# Summary of the method: as §1
# [15] = biological target: Gal(b1-4)GlcNAc(b1-3)Gal(b1-4)GlcNAc(b1-3)Gal(b1-4)GlcNAc(b1-3)Gal(b1-4)GlcNAc(b1-3)Gal(b1-4)GlcNAc(b1-2)Man(a1-3)[Gal(b1-4)GlcNAc(b1-3)Gal(b1-4)GlcNAc(b1-3)Gal(b1-4)GlcNAc(b1-3)Gal(b1-4)GlcNAc(b1-3)Gal(b1-4)GlcNAc(b1-2)Man(a1-6)]Man(b1-4)GlcNAc(b1-4)GlcNAc
# Summary of the method: as §1
# [16] = biological target: Gal(b1-4)GlcNAc(b1-3)Gal(b1-4)GlcNAc(b1-3)Gal(b1-4)GlcNAc(b1-3)Gal(b1-4)GlcNAc(b1-3)Gal(b1-4)GlcNAc(b1-2)Man(a1-3)[Gal(b1-4)GlcNAc(b1-3)Gal(b1-4)GlcNAc(b1-3)Gal(b1-4)GlcNAc(b1-3)Gal(b1-4)GlcNAc(b1-3)Gal(b1-4)GlcNAc(b1-2)Man(a1-6)]Man(b1-4)GlcNAc(b1-4)[Fuc(a1-6)]GlcNAc
# Summary of the method: as §1
# [17] = biological target: Gal(b1-4)GlcNAc(b1-3)Gal(b1-4)GlcNAc(b1-3)Gal(b1-4)GlcNAc(b1-3)Gal(b1-4)GlcNAc(b1-3)Gal(b1-4)GlcNAc(b1-2)[Gal(b1-4)GlcNAc(b1-3)Gal(b1-4)GlcNAc(b1-3)Gal(b1-4)GlcNAc(b1-3)Gal(b1-4)GlcNAc(b1-3)Gal(b1-4)GlcNAc(b1-6)]Man(a1-6)[Gal(b1-4)GlcNAc(b1-3)Gal(b1-4)GlcNAc(b1-3)Gal(b1-4)GlcNAc(b1-3)Gal(b1-4)GlcNAc(b1-3)Gal(b1-4)GlcNAc(b1-2)Man(a1-3)]Man(b1-4)GlcNAc(b1-4)[Fuc(a1-6)]GlcNAc
# Summary of the method: as §1
# [18] = biological target: Gal(b1-4)GlcNAc(b1-3)Gal(b1-4)GlcNAc(b1-3)Gal(b1-4)GlcNAc(b1-3)Gal(b1-4)GlcNAc(b1-3)Gal(b1-4)GlcNAc(b1-3)Gal(b1-4)GlcNAc(b1-2)Man(a1-3)[Gal(b1-4)GlcNAc(b1-3)Gal(b1-4)GlcNAc(b1-3)Gal(b1-4)GlcNAc(b1-3)Gal(b1-4)GlcNAc(b1-3)Gal(b1-4)GlcNAc(b1-3)Gal(b1-4)GlcNAc(b1-2)Man(a1-6)]Man(b1-4)GlcNAc(b1-4)GlcNAc
# Summary of the method: as §1
# [19] = biological target: Gal(b1-4)GlcNAc(b1-3)Gal(b1-4)GlcNAc(b1-3)GalNAc
# Summary of the method: as §1
binder,measurement,setting,value
B1,glycan array binding signal (z-score),[1],-0.368
same,glycan array binding signal (z-score),[2],-0.248
same,glycan array binding signal (z-score),[3],0.171
same,glycan array binding signal (z-score),[4],8.48
same,glycan array binding signal (z-score),[5],0.322
same,glycan array binding signal (z-score),[6],0.515
same,glycan array binding signal (z-score),[7],1.26
same,glycan array binding signal (z-score),[8],-0.449
same,glycan array binding signal (z-score),[9],0.651
same,glycan array binding signal (z-score),[10],0.491
same,glycan array binding signal (z-score),[11],0.566
same,glycan array binding signal (z-score),[12],-0.108
same,glycan array binding signal (z-score),[13],0.184
same,glycan array binding signal (z-score),[14],0.38
same,glycan array binding signal (z-score),[15],0.117
same,glycan array binding signal (z-score),[16],0.876
same,glycan array binding signal (z-score),[17],0.477
same,glycan array binding signal (z-score),[18],0.318
same,glycan array binding signal (z-score),[19],-0.217
